The source of these data is paper PMC9373805.

Sequences of proteins named here, by UniProt entry; tags and fusion partners are left off. A change or cut given only in a name is not applied to a line headed by its entry. Residues count along the entry.
UniProt Q9Y2H9: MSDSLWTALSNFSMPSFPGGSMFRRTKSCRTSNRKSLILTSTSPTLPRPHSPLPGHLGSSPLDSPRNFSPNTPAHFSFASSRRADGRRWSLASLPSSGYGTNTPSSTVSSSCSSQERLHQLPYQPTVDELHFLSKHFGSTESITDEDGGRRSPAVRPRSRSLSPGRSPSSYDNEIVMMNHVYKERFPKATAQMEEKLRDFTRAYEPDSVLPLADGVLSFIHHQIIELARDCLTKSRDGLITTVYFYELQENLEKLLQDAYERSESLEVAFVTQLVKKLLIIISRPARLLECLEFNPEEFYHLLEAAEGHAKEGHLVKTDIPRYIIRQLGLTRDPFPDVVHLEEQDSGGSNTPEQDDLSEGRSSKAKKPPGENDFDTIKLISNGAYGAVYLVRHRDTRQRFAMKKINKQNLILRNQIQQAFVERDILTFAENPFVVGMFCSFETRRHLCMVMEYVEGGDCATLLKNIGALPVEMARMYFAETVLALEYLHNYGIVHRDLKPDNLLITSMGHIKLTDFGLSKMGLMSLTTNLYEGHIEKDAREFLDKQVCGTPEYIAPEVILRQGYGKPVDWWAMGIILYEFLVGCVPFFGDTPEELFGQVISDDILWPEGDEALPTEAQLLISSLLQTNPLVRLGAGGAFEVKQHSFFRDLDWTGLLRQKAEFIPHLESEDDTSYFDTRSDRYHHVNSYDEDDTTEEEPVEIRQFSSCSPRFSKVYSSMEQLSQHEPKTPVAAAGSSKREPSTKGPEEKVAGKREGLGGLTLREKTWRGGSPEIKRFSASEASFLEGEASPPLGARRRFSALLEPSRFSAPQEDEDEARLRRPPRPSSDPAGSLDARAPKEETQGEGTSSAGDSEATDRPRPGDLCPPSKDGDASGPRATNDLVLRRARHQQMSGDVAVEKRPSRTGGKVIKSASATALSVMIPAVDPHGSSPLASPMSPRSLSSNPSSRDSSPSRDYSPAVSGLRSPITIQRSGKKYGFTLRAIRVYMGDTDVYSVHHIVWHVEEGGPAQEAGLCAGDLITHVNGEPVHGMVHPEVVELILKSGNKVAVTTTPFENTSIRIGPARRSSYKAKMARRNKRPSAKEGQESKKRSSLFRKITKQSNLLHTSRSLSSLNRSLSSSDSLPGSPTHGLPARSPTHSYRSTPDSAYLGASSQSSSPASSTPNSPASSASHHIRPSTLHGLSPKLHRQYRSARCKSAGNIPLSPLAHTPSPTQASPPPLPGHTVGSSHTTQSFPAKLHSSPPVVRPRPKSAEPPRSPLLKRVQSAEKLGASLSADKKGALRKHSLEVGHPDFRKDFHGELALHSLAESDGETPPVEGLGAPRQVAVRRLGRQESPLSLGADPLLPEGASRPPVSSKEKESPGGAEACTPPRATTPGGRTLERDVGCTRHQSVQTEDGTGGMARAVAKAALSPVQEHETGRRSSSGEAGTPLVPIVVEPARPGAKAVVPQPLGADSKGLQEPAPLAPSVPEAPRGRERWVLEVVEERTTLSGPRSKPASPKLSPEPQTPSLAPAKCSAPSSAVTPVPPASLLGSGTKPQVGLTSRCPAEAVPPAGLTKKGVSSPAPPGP
MAST1 truncated mutant MTM1 (1-832 aa): residues 1-832 of Q9Y2H9
MAST1 truncated mutant MTM2 (833-1570 aa): residues 833-1570 of Q9Y2H9
MAST1 truncated mutant MTM3 (1118-1465 aa): residues 1118-1465 of Q9Y2H9
UniProt Q9UM11: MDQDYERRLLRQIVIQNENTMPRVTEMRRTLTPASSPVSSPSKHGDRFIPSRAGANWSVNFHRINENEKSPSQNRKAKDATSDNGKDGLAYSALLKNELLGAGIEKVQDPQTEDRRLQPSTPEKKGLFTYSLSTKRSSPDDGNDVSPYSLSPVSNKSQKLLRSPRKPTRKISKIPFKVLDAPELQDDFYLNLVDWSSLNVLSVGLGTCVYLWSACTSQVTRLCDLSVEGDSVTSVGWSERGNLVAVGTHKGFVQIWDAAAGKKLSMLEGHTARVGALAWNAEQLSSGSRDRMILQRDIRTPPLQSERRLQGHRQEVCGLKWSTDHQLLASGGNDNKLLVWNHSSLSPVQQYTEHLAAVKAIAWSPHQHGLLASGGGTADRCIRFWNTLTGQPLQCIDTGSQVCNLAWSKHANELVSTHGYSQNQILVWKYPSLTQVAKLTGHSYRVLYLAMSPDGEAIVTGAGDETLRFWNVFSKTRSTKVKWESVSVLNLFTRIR
UniProt Q93008: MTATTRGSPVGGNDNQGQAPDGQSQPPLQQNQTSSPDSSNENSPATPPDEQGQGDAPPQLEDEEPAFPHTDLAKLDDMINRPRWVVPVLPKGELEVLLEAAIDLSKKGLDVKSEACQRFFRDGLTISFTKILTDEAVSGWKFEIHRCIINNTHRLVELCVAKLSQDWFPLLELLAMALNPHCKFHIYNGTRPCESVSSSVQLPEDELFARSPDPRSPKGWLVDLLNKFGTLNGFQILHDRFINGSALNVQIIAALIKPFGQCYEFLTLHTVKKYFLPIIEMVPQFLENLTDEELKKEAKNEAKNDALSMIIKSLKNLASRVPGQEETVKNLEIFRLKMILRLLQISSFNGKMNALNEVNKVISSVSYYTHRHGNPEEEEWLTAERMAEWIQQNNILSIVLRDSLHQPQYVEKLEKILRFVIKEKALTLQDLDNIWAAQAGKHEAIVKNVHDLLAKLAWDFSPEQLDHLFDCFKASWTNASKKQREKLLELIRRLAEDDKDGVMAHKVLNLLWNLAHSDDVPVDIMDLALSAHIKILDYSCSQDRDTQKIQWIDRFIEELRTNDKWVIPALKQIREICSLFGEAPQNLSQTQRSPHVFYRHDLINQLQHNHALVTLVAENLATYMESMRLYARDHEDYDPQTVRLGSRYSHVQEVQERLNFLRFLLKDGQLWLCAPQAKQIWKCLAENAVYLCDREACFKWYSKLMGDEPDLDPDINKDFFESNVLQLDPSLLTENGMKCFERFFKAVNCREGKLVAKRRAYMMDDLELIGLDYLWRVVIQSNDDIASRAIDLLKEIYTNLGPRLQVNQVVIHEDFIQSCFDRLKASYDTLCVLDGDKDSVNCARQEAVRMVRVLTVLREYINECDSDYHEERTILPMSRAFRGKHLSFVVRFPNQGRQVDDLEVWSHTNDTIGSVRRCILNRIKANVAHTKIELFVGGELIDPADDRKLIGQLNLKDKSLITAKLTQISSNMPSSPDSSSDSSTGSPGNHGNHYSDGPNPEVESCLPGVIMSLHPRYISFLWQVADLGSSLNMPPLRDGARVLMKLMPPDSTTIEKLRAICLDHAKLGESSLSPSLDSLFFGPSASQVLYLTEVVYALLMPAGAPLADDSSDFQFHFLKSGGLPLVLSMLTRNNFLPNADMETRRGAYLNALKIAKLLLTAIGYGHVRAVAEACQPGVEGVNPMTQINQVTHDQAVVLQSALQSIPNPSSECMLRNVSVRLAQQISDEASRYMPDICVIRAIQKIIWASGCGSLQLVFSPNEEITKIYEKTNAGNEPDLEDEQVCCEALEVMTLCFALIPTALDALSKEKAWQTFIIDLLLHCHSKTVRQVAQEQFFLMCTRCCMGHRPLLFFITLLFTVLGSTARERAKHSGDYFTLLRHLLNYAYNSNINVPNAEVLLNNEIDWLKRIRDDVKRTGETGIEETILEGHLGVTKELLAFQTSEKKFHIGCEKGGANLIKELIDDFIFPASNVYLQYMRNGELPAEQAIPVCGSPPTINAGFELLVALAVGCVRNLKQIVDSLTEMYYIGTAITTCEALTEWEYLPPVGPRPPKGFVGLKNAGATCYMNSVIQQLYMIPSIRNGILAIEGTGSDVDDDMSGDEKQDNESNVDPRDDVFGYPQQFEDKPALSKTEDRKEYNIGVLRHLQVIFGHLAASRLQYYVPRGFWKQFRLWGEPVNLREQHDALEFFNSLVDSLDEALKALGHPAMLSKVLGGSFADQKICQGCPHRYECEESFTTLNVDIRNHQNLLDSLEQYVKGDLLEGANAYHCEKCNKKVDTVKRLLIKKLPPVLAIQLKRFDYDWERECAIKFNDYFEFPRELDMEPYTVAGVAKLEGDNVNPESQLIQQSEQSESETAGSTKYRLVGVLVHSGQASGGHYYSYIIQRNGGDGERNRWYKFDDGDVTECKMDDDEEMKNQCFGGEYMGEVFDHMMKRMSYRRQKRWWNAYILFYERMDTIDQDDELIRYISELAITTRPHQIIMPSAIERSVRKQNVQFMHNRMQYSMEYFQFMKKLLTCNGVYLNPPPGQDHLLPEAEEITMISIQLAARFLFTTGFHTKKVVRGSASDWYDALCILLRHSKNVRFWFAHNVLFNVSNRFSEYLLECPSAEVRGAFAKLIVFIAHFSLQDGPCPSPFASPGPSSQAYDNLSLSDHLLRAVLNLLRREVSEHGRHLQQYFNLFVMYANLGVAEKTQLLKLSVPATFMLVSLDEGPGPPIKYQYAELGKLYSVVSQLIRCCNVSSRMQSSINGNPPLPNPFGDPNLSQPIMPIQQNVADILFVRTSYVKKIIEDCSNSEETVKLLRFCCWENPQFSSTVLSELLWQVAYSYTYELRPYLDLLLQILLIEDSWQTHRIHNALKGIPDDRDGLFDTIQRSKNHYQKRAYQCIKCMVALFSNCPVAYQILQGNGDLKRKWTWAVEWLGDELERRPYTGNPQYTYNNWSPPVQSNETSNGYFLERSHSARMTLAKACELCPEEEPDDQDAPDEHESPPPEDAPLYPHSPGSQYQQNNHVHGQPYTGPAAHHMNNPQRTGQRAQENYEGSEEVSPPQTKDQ

Results are given in words; binding and its absence hold for the method and conditions named. Binding seen in cells or lysates may run through a third protein. Some entries that bind do so weakly or less than the wild type. For some assays here: Sequences can lack the tags named with a protein.

The target in assay [1] is Myc-MAST1 (microtubule-associated serine/threonine-protein kinase 1, full length) (human) (UniProt Q9Y2H9). As to the kind of experiment: co-IP; mapping with truncated mutants: Flag- and Myc-tagged constructs co-expressed (cell line not stated); IP lysis buffer with 150 mM NaCl, 1% NP-40; Western blot with the indicated antibodies.
Another assay deals with T1, Flag-USP1 (UniProt O94782).
T1 sequence: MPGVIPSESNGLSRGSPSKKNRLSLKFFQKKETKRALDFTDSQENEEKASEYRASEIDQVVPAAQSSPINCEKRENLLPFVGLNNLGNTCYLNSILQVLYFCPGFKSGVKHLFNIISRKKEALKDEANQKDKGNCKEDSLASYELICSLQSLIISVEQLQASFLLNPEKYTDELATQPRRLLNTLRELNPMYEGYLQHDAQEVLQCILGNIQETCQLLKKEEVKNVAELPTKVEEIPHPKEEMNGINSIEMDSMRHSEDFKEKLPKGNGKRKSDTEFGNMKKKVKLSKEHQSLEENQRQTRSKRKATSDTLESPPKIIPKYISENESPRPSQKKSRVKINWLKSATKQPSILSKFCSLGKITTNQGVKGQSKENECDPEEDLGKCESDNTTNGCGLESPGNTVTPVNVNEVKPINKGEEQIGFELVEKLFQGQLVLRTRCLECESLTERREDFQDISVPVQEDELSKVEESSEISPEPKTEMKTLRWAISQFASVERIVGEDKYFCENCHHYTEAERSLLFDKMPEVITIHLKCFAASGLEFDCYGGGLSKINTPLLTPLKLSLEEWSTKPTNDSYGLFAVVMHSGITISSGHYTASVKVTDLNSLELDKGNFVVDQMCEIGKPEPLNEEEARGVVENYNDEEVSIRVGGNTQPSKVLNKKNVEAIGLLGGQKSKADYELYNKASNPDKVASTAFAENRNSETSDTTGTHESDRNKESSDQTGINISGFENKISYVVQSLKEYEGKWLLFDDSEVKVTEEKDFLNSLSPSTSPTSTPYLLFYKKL
As to the kind of experiment: co-IP; Flag- and Myc-tagged full-length proteins co-transfected into HEK293 cells; lysed 48 h after transfection in IP lysis buffer (25 mM Tris-HCl pH 7.4, 150 mM NaCl, 1 mM EDTA, 1% NP-40, 5% glycerol); antibody overnight at 4 °C, protein agarose beads; Western blot. (A western blot detects proteins with antibodies after separation by electrophoresis.)

The next assay addresses Flag-Cdh1 (UniProt Q9UM11). Described as above.
Assay [2] concerns the target MAST1 truncated mutant MTM2 (833-1570 aa) (human) (UniProt Q9Y2H9). The assay is described as follows: co-IP; mapping with truncated mutants: Flag- and Myc-tagged constructs co-expressed (cell line not stated); IP lysis buffer with 150 mM NaCl, 1% NP-40; Western blot with the indicated antibodies.
The target in assay [3] is MAST1 truncated mutant MTM3 (1118-1465 aa) (human) (UniProt Q9Y2H9). Described as above.
Assay [4] has as its target MAST1 truncated mutant MTM1 (1-832 aa) (human) (UniProt Q9Y2H9). The description is as above.
Assay [5] has as its target Myc-MAST1 (microtubule-associated serine/threonine-protein kinase 1, full length) (human) (UniProt Q9Y2H9). The assay is described as follows: co-IP; Flag- and Myc-tagged full-length proteins co-transfected into HEK293 cells; lysed 48 h after transfection in IP lysis buffer (25 mM Tris-HCl pH 7.4, 150 mM NaCl, 1 mM EDTA, 1% NP-40, 5% glycerol); antibody overnight at 4 °C, protein agarose beads; Western blot.

For assay [6], the target named is endogenous MAST1 (human (endogenous in HeLa)) (UniProt Q9Y2H9). As to the kind of experiment: co-IP; endogenous proteins of HeLa cells, precipitated with specific antibodies against either partner; IP lysis buffer with 150 mM NaCl, 1% NP-40; for USP1-MAST1 also after MLN7243 (10 µM) or PR-619 (20 µM) for 1 h, which reduced the interaction against DMSO.
Assay [7] shares this target. As to the kind of experiment: proximity ligation; Duolink in situ PLA on fixed cells with primary antibodies against both endogenous proteins; HeLa cells by the legends (A549 by the methods); no dots with single antibodies.
Assay [8] has the same target. As to the kind of experiment: co-IP; endogenous USP9X and MAST1; cell line not stated; lysates immunoprecipitated and immunoblotted with the indicated antibodies.
Assay [9] addresses T2, endogenous USP1 (human (endogenous in HeLa)) (UniProt O94782).
T2 sequence: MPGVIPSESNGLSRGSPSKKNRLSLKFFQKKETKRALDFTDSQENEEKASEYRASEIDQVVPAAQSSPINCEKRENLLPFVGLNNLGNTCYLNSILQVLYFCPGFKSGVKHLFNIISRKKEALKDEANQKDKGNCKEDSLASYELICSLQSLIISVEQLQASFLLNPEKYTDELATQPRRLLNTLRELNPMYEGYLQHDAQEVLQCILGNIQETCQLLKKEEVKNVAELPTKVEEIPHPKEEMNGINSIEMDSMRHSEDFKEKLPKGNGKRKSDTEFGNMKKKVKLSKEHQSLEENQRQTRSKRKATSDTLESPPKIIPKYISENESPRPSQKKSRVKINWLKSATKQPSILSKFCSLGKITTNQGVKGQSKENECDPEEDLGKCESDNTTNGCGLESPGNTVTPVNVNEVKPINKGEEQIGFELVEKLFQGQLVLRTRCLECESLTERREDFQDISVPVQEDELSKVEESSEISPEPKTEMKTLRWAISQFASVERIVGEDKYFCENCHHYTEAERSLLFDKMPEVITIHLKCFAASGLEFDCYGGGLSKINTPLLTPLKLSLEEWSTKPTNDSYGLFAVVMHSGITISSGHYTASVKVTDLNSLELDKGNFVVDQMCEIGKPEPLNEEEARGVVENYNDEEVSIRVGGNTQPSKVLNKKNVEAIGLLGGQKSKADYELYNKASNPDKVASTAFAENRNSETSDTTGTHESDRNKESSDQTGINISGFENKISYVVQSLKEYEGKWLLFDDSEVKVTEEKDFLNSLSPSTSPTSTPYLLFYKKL
As to the kind of experiment: co-IP; endogenous proteins of HeLa cells, precipitated with specific antibodies against either partner; IP lysis buffer with 150 mM NaCl, 1% NP-40; for USP1-MAST1 also after MLN7243 (10 µM) or PR-619 (20 µM) for 1 h, which reduced the interaction against DMSO.

Assay [10] addresses endogenous Cdh1 (E3 ligase) (human (endogenous in HeLa)) (UniProt Q9UM11). Described as above.
For assay [11], the target named is Myc-MAST1 (microtubule-associated serine/threonine-protein kinase 1, full length) (human) (UniProt Q9Y2H9). The assay is described as follows: co-IP; mapping with truncated mutants: Flag- and Myc-tagged constructs co-expressed (cell line not stated); IP lysis buffer with 150 mM NaCl, 1% NP-40; Western blot with the indicated antibodies. This is another data set of the same source.

The target is the same in assay [12]. The assay is described as follows: co-IP; Flag- and Myc-tagged full-length proteins co-transfected into HEK293 cells; lysed 48 h after transfection in IP lysis buffer (25 mM Tris-HCl pH 7.4, 150 mM NaCl, 1 mM EDTA, 1% NP-40, 5% glycerol); antibody overnight at 4 °C, protein agarose beads; Western blot. This is another data set of the same source.

Regarding “Cdh1 truncated mutant CTM1 (1-155 aa) (from UniProt Q9UM11 1-155) (domain or fragment)”, in [1], the binding result is listed as “no binding”.

For “Myc-MAST1 (microtubule-associated serine/threonine-protein kinase 1, full length) (from UniProt Q9Y2H9 1-1570)”, the binding result with Flag-USP1 and with Flag-Cdh1 was “binds” each time.

For the molecule Flag-Cdh1 (from UniProt Q9UM11 1-496), the binding result in assay [2] was “binds”; in assay [3], “no binding”; in [4], “no binding”; in [5] it was “binds”.

Consider “Cdh1 truncated mutant CTM2 (156-496 aa) (from UniProt Q9UM11 156-496) (domain or fragment)”, for which the binding result in assay [1] is recorded as “binds”.

Turning to “endogenous Cdh1 (E3 ligase) (from UniProt Q9UM11 1-496)”, the binding result in [6] and in assay [7] was “binds” each time.

“endogenous USP9X (from UniProt Q93008 1-2554) (enzyme)”: the binding result in assay [8] is “binds”.

“endogenous MAST1 (from UniProt Q9Y2H9 1-1570)”: the binding entry in [9] and in [10] was “binds” in each case.

B1: USP1 truncated mutant UTM3 (201-785 aa) (domain or fragment, UniProt O94782 201-785)
chain: QEVLQCILGNIQETCQLLKKEEVKNVAELPTKVEEIPHPKEEMNGINSIEMDSMRHSEDFKEKLPKGNGKRKSDTEFGNMKKKVKLSKEHQSLEENQRQTRSKRKATSDTLESPPKIIPKYISENESPRPSQKKSRVKINWLKSATKQPSILSKFCSLGKITTNQGVKGQSKENECDPEEDLGKCESDNTTNGCGLESPGNTVTPVNVNEVKPINKGEEQIGFELVEKLFQGQLVLRTRCLECESLTERREDFQDISVPVQEDELSKVEESSEISPEPKTEMKTLRWAISQFASVERIVGEDKYFCENCHHYTEAERSLLFDKMPEVITIHLKCFAASGLEFDCYGGGLSKINTPLLTPLKLSLEEWSTKPTNDSYGLFAVVMHSGITISSGHYTASVKVTDLNSLELDKGNFVVDQMCEIGKPEPLNEEEARGVVENYNDEEVSIRVGGNTQPSKVLNKKNVEAIGLLGGQKSKADYELYNKASNPDKVASTAFAENRNSETSDTTGTHESDRNKESSDQTGINISGFENKISYVVQSLKEYEGKWLLFDDSEVKVTEEKDFLNSLSPSTSPTSTPYLLFYKKL
In the case of B1, in assay [11], the binding entry is reported as “binds”.

B2: Flag-USP44 (enzyme, UniProt Q9H0E7 1-712)
chain: MLAMDTCKHVGQLQLAQDHSSLNPQKWHCVDCNTTESIWACLSCSHVACGRYIEEHALKHFQESSHPVALEVNEMYVFCYLCDDYVLNDNTTGDLKLLRRTLSAIKSQNYHCTTRSGRFLRSMGTGDDSYFLHDGAQSLLQSEDQLYTALWHRRRILMGKIFRTWFEQSPIGRKKQEEPFQEKIVVKREVKKRRQELEYQVKAELESMPPRKSLRLQGLAQSTIIEIVSVQVPAQTPASPAKDKVLSTSENEISQKVSDSSVKRRPIVTPGVTGLRNLGNTCYMNSVLQVLSHLLIFRQCFLKLDLNQWLAMTASEKTRSCKHPPVTDTVVYQMNECQEKDTGFVCSRQSSLSSGLSGGASKGRKMELIQPKEPTSQYISLCHELHTLFQVMWSGKWALVSPFAMLHSVWRLIPAFRGYAQQDAQEFLCELLDKIQRELETTGTSLPALIPTSQRKLIKQVLNVVNNIFHGQLLSQVTCLACDNKSNTIEPFWDLSLEFPERYQCSGKDIASQPCLVTEMLAKFTETEALEGKIYVCDQCNSKRRRFSSKPVVLTEAQKQLMICHLPQVLRLHLKRFRWSGRNNREKIGVHVGFEEILNMEPYCCRETLKSLRPECFIYDLSAVVMHHGKGFGSGHYTAYCYNSEGGFWVHCNDSKLSMCTMDEVCKAQAYILFYTQRVTENGHSKLLPPELLLGSQHPNEDADTSSNEILS
On to B2, for which the binding entry in assay [12] is recorded as “binds”.

B3: USP1 truncated mutant UTM2 (401-785 aa) (domain or fragment, UniProt O94782 401-785)
chain: NTVTPVNVNEVKPINKGEEQIGFELVEKLFQGQLVLRTRCLECESLTERREDFQDISVPVQEDELSKVEESSEISPEPKTEMKTLRWAISQFASVERIVGEDKYFCENCHHYTEAERSLLFDKMPEVITIHLKCFAASGLEFDCYGGGLSKINTPLLTPLKLSLEEWSTKPTNDSYGLFAVVMHSGITISSGHYTASVKVTDLNSLELDKGNFVVDQMCEIGKPEPLNEEEARGVVENYNDEEVSIRVGGNTQPSKVLNKKNVEAIGLLGGQKSKADYELYNKASNPDKVASTAFAENRNSETSDTTGTHESDRNKESSDQTGINISGFENKISYVVQSLKEYEGKWLLFDDSEVKVTEEKDFLNSLSPSTSPTSTPYLLFYKKL
B3: the binding result in assay [11] is recorded as “binds”.

B4: USP1 truncated mutant UTM1 (1-400 aa) (domain or fragment, UniProt O94782 1-400)
chain: MPGVIPSESNGLSRGSPSKKNRLSLKFFQKKETKRALDFTDSQENEEKASEYRASEIDQVVPAAQSSPINCEKRENLLPFVGLNNLGNTCYLNSILQVLYFCPGFKSGVKHLFNIISRKKEALKDEANQKDKGNCKEDSLASYELICSLQSLIISVEQLQASFLLNPEKYTDELATQPRRLLNTLRELNPMYEGYLQHDAQEVLQCILGNIQETCQLLKKEEVKNVAELPTKVEEIPHPKEEMNGINSIEMDSMRHSEDFKEKLPKGNGKRKSDTEFGNMKKKVKLSKEHQSLEENQRQTRSKRKATSDTLESPPKIIPKYISENESPRPSQKKSRVKINWLKSATKQPSILSKFCSLGKITTNQGVKGQSKENECDPEEDLGKCESDNTTNGCGLESPG
Consider B4, for which the binding result in assay [11] is recorded as “no binding”.
